US20230278972A1, “SUBSTITUTED HALOALKYL SULFONANILIDE HERBICIDES” (FMC Corporation, priority 2020, published 2023)

Columns and labels:
Conditions in all cases: Flood, 250 g ai/ha; visual rating after 13 to 15 days; scale of 0 to 100 where 0 is no effect and 100 is complete control
rice (Oryza sativa) = assay: Test B flooded paddy test, rice
[1] = test system: ducksalad (Heteranthera limosa); assay: Test B flooded paddy test, ducksalad
[2] = test system: barnyardgrass (Echinochloa crus-galli); assay: Test B flooded paddy test, barnyardgrass
[3] = test system: sedge, umbrella (small-flower umbrella sedge, Cyperus difformis); assay: Test B flooded paddy test, sedge, umbrella

Row | Compound | Plant response rating, Rice (rice (Oryza sativa)) | Plant response rating, Ducksalad [1] | Plant response rating, Barnyardgrass [2] | Plant response rating, Sedge, Umbrella [3]
1 | COC1CCCN(C(=O)c2cc(N(S(=O)(=O)C(F)(F)F)S(=O)(=O)C(F)(F)F)c(C)cc2C)C1 (stereo not shown) [Compound 119] | 15 | 75 | 35 | 75
2 | Cc1cc(C)c(C2=NOC3(C2)CC(C)(C)CC(C)(C)C3)cc1NS(=O)(=O)C(F)(F)F [Compound 122] | 0 | 0 | 0 | 0
3 | Cc1cc(C)c(C2=NOC3CCCCC23)cc1NS(=O)(=O)C(F)(F)F (stereo not shown) [Compound 123] | 20 | 40 | 35 | 90
4 | Cc1cc(C#N)c(C(=O)N2CCCCC2)cc1NS(=O)(=O)C(F)(F)F [Compound 126] | 0 | 45 | 0 | 80
5 | Cc1cc(C)c(N(S(=O)(=O)C(F)(F)F)S(=O)(=O)C(F)(F)F)cc1C1=NOC(C(C)(C)C)C1 (stereo not shown) [Compound 127] | 10 | 45 | 25 | 90
6 | Cc1c(NS(=O)(=O)C(F)(F)F)cc(C(=O)N2CCC3(CC2)OCCCO3)c(C)c1F [Compound 129] | 0 | 0 | 0 | 75
7 | Cc1cc(C)c(C2=NOC3CCCCC23)cc1NS(=O)(=O)C(F)(F)F (stereo not shown) [Compound 131] | 0 | 50 | 85 | 90
8 | Cc1cc(C(F)(F)F)c(NS(=O)(=O)C(F)(F)F)cc1C(=O)N(C)C [Compound 132] | 30 | 45 | 0 | 80
9 | Cc1cc(C(F)(F)F)c(C(=O)N(C)C)cc1NS(=O)(=O)C(F)(F)F [Compound 133] | 45 | 35 | 15 | 95
10 | Cc1cc(C#N)c(C(=O)N(C)C)cc1NS(=O)(=O)C(F)(F)F [Compound 134] | 0 | 0 | 0 | 45
11 | Cc1cc(C)c(C2=NOC3(CCC4(CC3)OCCO4)C2)cc1NS(=O)(=O)C(F)(F)F [Compound 135] | 10 | 85 | 30 | 75
12 | Cc1cc(C)c(N(S(=O)(=O)C(F)(F)F)S(=O)(=O)C(F)(F)F)cc1C1=NOC2(CCC3(CC2)OCCO3)C1 [Compound 136] | 20 | 60 | 10 | 80
13 | COC1CCCN(C(=O)c2cc(NS(=O)(=O)C(F)(F)F)c(C)cc2C)CC1 (stereo not shown) [Compound 137] | 40 | 50 | 35 | 75
14 | Cc1cc(C)c(N(S(=O)(=O)C(F)(F)F)S(=O)(=O)C(F)(F)F)cc1C1=NOC2(CCC(C)(C)CC2)C1 [Compound 139] | 0 | 0 | 0 | 0
15 | CCCCC(=O)OCN(c1cc(C2=NOC3(CCCC3)C2)c(C)cc1C)S(=O)(=O)C(F)(F)F [Compound 143] | 0 | 35 | 95 | 95
16 | CCC(=O)OCN(c1cc(C2=NOC3(CCCC3)C2)c(C)cc1C)S(=O)(=O)C(F)(F)F [Compound 144] | 15 | 35 | 90 | 80

Row | Compound | Plant response rating, Rice (rice (Oryza sativa)) | Plant response rating, Ducksalad [1] | Plant response rating, Barnyardgrass [2] | Plant response rating, Sedge, Umbrella [3]
17 | COC1CCCN(C(=O)c2cc(NS(=O)(=O)C(F)(F)F)c(Cl)cc2C)C1 (stereo not shown) [Compound 146] | 0 | 85 | 0 | 85
18 | C#CCN(C)C(=O)c1cc(N(S(=O)(=O)C(F)(F)F)S(=O)(=O)C(F)(F)F)c(C)c(F)c1C [Compound 147] | 0 | 65 | 0 | 80
19 | Cc1cc(C)c(N(COC(=O)C2CCCCC2)S(=O)(=O)C(F)(F)F)cc1C1=NOC2(CCCC2)C1 [Compound 148] | 0 | 0 | 0 | 0
20 | Cc1cc(C)c(N(COC(=O)c2ccccc2)S(=O)(=O)C(F)(F)F)cc1C1=NOC2(CCCC2)C1 [Compound 149] | 0 | 25 | 95 | 65
21 | Cc1cc(C)c(N(COC(=O)C2CCCC2)S(=O)(=O)C(F)(F)F)cc1C1=NOC2(CCCC2)C1 [Compound 150] | 0 | 30 | 95 | 80
22 | CCC(C)C(=O)OCN(c1cc(C2=NOC3(CCCC3)C2)c(C)cc1C)S(=O)(=O)C(F)(F)F (stereo not shown) [Compound 151] | 10 | 35 | 85 | 65
23 | Cc1cc(C)c(N(COC(=O)CC(C)C)S(=O)(=O)C(F)(F)F)cc1C1=NOC2(CCCC2)C1 [Compound 152] | 0 | 35 | 95 | 70
24 | Cc1cc(Cl)c(NS(=O)(=O)C(F)(F)F)cc1C(=O)N1CCOCC1(C)C [Compound 153] | 25 | 70 | 15 | 65
25 | CCOC1CCCN(C(=O)c2cc(NS(=O)(=O)C(F)(F)F)c(C)cc2C)C1 (stereo not shown) [Compound 154] | 30 | 45 | 15 | 65
26 | Cc1cc(C)c(C(=O)N2CCCC(F)C2)cc1NS(=O)(=O)C(F)(F)F (stereo not shown) [Compound 155] | 75 | 75 | 90 | 85
27 | Cc1cc(C)c(N2CC3(CCOCC3)OC2=O)cc1NS(=O)(=O)C(F)(F)F [Compound 156] | 35 | 65 | 50 | 85
28 | Cc1cc(C)c(N(S(=O)(=O)C(F)(F)F)S(=O)(=O)C(F)(F)F)cc1N1CC2(CCOCC2)OC1=O [Compound 157] | 15 | 55 | 20 | 70
29 | Cc1cc(C)c(N(S(=O)(=O)C(F)(F)F)S(=O)(=O)C(F)(F)F)cc1C1=NOC2(CCCCCC2)C1 [Compound 158] | 35 | 70 | 35 | 90
30 | Cc1cc(C)c(C(=O)N2CCCOCC2)cc1NS(=O)(=O)C(F)(F)F [Compound 160] | 0 | 45 | 0 | 75
31 | Cc1cc(C)c(N(S(=O)(=O)C(F)(F)F)S(=O)(=O)C(F)(F)F)cc1C(=O)N1CCC(C#N)CC1 [Compound 161] | 35 | 70 | 90 | 90
